Hit rate of the full screen: of about 310,000 compounds, about 11,000 (3.5%) were called active. This list was built around the results that the source calls inconclusive (neither active nor inactive); the mix of calls is not that of the screen. Calls come from the whole dose curve; as a rule, active = well fitted inhibition curve with a large enough effect; inconclusive = small, poorly fitted or top-dose-only effect, or effect the other way; inactive = flat fitted curve, though single readings scatter. Potencies of inconclusive entries are left out as doubtful fits.
Test: VP16 counterscreen qHTS for inhibitors of ROR gamma transcriptional activity;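 note: Gal4-VP16 expression switched on by copper sulfate through the metallothionein promoter; nearly all actives have a fitted effect of over 50% in size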
Conditions: Drosophila S2 Gal4-VP16 UAS-luciferase, luminescence, 20 h; series mostly up to 53.6 µM
Potency is the fitted concentration of half-maximal effect; tags give direction and shape of the fitted curve.

Structure (SMILES)	Potency
Cc1cc(C)c(C2=Nn3c(C)nnc3SC2C)cc1C (stereo not given)	inactive
Cc1ccccc1N=C/C=C1\N(C)c2ccccc2C1(C)C	active: 12.6 µM
O=C(c1ccc(S(=O)(=O)Cc2cc(F)ccc2F)c([N+](=O)[O-])c1)N1CCCC1	inconclusive [inhibitor, partial curve]
CN(C)C(=O)CN1C(=O)NC2(CCc3ccccc32)C1=O (stereo not given)	inactive
CC(C)c1ccc(OCC(=O)Nc2cccc3c2CCCC3)cc1	inconclusive [inhibitor, single point]
O=C(CCCn1cnc([N+](=O)[O-])n1)Nc1cc(Cl)ccc1O	inactive
O=C(Nc1nnc(-c2ccc(Cl)cc2)o1)NC1CCCCC1	active: 3.55 µM
CCc1ccc(OCC(=O)NC(NC(=S)Nc2ccc(Cl)cc2)C(Cl)(Cl)Cl)cc1 (stereo not given)	inconclusive [inhibitor, single point]
COc1ccc(C(=O)O/N=C(\N)c2ccc(Cl)cc2)cc1	inactive
O=C(c1cc2nc(-c3ccco3)cc(C(F)(F)F)n2n1)N1CCN(c2ccc(F)cc2)CC1	inactive
Cc1ccsc1/C=N/NC(=O)CNC(=O)c1ccc(S(=O)(=O)N(C)C)cc1	inactive
O=c1c2cc(Br)ccc2nc(-c2cccc(Cl)c2)n1O	inconclusive [inhibitor, single point]
COc1cc(C)c(NC(=S)Nc2ccc(C)c(Cl)c2)cc1OC	inconclusive [inhibitor, single point]
c1ccc(-c2nn3c(-c4ccco4)nnc3s2)nc1	inactive
CN1CCN(c2ccc(NC(=S)NC(=O)/C=C/c3ccco3)cc2)CC1	active: 11.2 µM
COc1ccc(-c2[nH]ncc2CN(C)Cc2cccnc2)c(OC)c1	inactive
CCCCOC(=O)c1ccc(NC(=O)/C=C/c2cccs2)cc1	inconclusive [inhibitor, single point]
CCOc1ccc(-n2c(COc3ccc(C)cc3)nnc2SCC(N)=O)cc1	inactive
NC(=O)C1CCN(Cc2nc3cc(C(F)(F)F)ccc3c(=O)[nH]2)CC1	inactive
CCc1cc2c(=O)n(Cc3ccco3)c(SCC(=O)NC3CCS(=O)(=O)C3)nc2s1 (stereo not given)	inconclusive [activator, full curve, poor fit]
CN(C)CCN(Cc1cccs1)S(=O)(=O)c1csc(C(N)=O)c1	inactive
Cc1cc(Cl)ccc1NS(=O)(=O)c1c(C)[nH]c(=O)[nH]c1=O	inactive
C/C=C1\COC(C(=O)NCCCN2CCCC2=O)(C(F)(F)F)C=C1C=C(C)C (stereo not given)	inconclusive [inhibitor, single point]
O=[N+]([O-])c1cccc(S(=O)(=O)N2CCC(c3nc(-c4ccncc4)no3)CC2)c1	inactive
CCCn1c(C2CC(=O)N(c3ccc(C)cc3)C2)nc2ccccc21 (stereo not given)	inactive
C/C(=N\NC(=O)CNc1ccccc1Cl)C(C)(C)C	inconclusive [inhibitor, single point]
O=C1c2ccccc2C(O)N1CCN1CCOCC1 (stereo not given)	inactive

Structure (SMILES)	Potency
Fc1ccc(-n2c(-c3ccc4c(c3)OCO4)n[nH]c2=S)cc1Cl	inconclusive [inhibitor, single point]
COc1ccc(/C=N/NC(=O)c2nc(Cl)c(Cl)c(N)c2Cl)cc1COc1ccc(F)cc1F	inactive
Cc1ccc2nc(SCc3nc4ccccc4c(=O)[nH]3)[nH]c2c1	inconclusive [activator, single point]
O=C(O)c1cccc(NC(=S)N/N=C/c2cccnc2)c1	inactive
CCOC(=O)C1=C(C)OC(N)=C(C#N)C1c1cc2ccccc2nc1N1CCCCC1 (stereo not given)	inactive
Cc1cc(N)c(NC2=CC(=O)CC(C)(C)C2)cc1C	inconclusive [inhibitor, single point]
CCOC(=O)C(Sc1cc(-c2ccccc2)nc2ncnn12)C(C)=O (stereo not given)	active: 2.82 µM
Cc1onc(-c2ccccc2Cl)c1C(=O)NC(=S)NCCc1ccccc1	active: 20 µM
CC(=O)c1ccc(Nc2nc(N3CCOCC3)nc(N3CCOCC3)n2)cc1	inactive
C/C(=N\NC(=O)c1ccncc1)c1cc2ccccc2oc1=O	active: 12.6 µM
CCC(C)n1c(S(=O)(=O)O)nc2ccccc21 (stereo not given)	inactive
CC(NC(=O)c1ccncc1)c1ccc(Cl)cc1Cl (stereo not given)	inactive
Oc1ccc(-c2csc(Nc3ccccn3)n2)cc1O	active: 6.31 µM
O=c1c2ccccc2nnn1CSc1nnc(C2COc3ccccc3O2)n1-c1ccccc1 (stereo not given)	inactive
S=C(NN=C1C2CC3CC(C2)CC1C3)Nc1ccccc1	inconclusive [inhibitor, single point]
N#C/C(=C/c1ccc2c(c1)OCO2)C(=O)NCCc1c[nH]c2ccccc12	inconclusive [inhibitor, single point]
Cc1cc(OCCCn2ccnc2)cc(C)c1Cl	inactive
Cc1ccc(NNC(=O)C(O)(c2cccc(C(F)(F)F)c2)c2cccc(C(F)(F)F)c2)cc1	inconclusive [inhibitor, single point]
CC(=O)N(C(C)=O)c1c(N2CCOCC2)c2ccccc2oc1=O	inactive
O=[N+]([O-])c1cc(N=Nc2ccc3ccccc3c2)ccc1O	inactive
C/C(CC(=O)Nc1cc(Cl)ccc1Cl)=N\NC(=O)c1ccco1	inconclusive [inhibitor, single point]
CCOc1cccc(-c2c(C(=O)N/N=C/c3ccc(C)s3)nnn2-c2nonc2N)c1	active: 3.98 µM
NS(=O)(=O)c1ccc(NC(=S)N2CCN(c3cccc(Cl)c3)CC2)cc1	inconclusive [inhibitor, single point]
Cc1ccc(CN2CCN(CC(=O)N=Nc3c(O)[nH]c4ccccc34)CC2)cc1	inactive
CCN(CC)c1ccc(NC(=O)c2cc3ccccc3o2)c(C)c1	inactive
CCc1ccc(NC(=O)COC(=O)C2(c3ccc(Cl)cc3)CCCC2)cc1	inconclusive [inhibitor, single point]
COCCN(CCOC)C(=S)Nc1cc(S(=O)(=O)N(C)C)ccc1C	inactive

Structure (SMILES)	Potency
CCOc1cc(/C=C/C(=O)Nc2ccc(C(=O)NCCN(CC)CC)cc2)ccc1OCC(C)C	inconclusive [inhibitor, single point]
CC(C)[C@H](NS(=O)(=O)c1ccc2c(c1)OCCO2)C(=O)OCC(=O)Nc1cc(Cl)ccc1Cl	inconclusive [activator, single point]
Cc1cc2cc(CNC(=S)NCc3ccccc3)ccc2n1C	inconclusive [inhibitor, single point]
COc1ccc(-n2nnc3c(SCC(=O)Nc4ccc5c(c4)OCCO5)ncnc32)cc1	inconclusive [inhibitor, partial curve]
O=C(Nn1cnc2ccccc2c1=O)c1ccc([N+](=O)[O-])cc1Cl	inconclusive [activator, single point]
CC1Oc2ccccc2C=C1/C=N/NC(=O)c1ccccc1 (stereo not given)	inconclusive [activator, partial curve]
Nc1c(N2CCCC2)cc(Cl)c2nonc12	inconclusive [inhibitor, single point]
O=C(Nc1nc(-c2cccs2)cs1)c1cc2ccccc2oc1=O	inconclusive [inhibitor, single point]
COc1cc(C[C@H]2C(=O)OC[C@@H]2Cc2ccc(OC)c(OC)c2)ccc1O	active: 1.12 µM
Cn1c(SCC(=O)NNC(=S)Nc2ccccc2)nnc1-c1ccncc1	inactive
Cc1ccnc(Nc2nc(-c3ccc(Cl)cc3)cs2)c1	inconclusive [inhibitor, partial curve, poor fit]
Cc1cccc(NNC(=S)Nc2c(C)cccc2C)c1	active: 3.16 µM
CCC(C)NC(=S)NNC(=O)c1ccc(C(C)(C)C)cc1 (stereo not given)	active: 8.91 µM
COC(=O)c1sc(=S)sc1C(=O)OC	inconclusive [inhibitor, single point]
COc1ccccc1/C=C\C(=O)O	inactive
CCc1cccc(NC(=O)Nc2cccs2)c1	inconclusive [inhibitor, single point]
Nc1nonc1-n1nnc(C(=O)N/N=C/c2ccc(Br)cc2)c1CSC1=NCCS1	inconclusive [inhibitor, single point]
CCOC(=O)CC(NS(=O)(=O)c1ccc(OC)c(C)c1)c1cccc([N+](=O)[O-])c1 (stereo not given)	inconclusive [activator, single point]
COc1ccc(-n2c(COc3cccc(C)c3)n[nH]c2=S)cc1	active: 5.01 µM
Cc1ccc(NC(=S)NC2CCCC2)cc1C	active: 3.55 µM
COc1ccc(CS(=O)(=O)/C(Cl)=C(/Cl)C(=O)Nc2ccc(OC)nc2)cc1	active: 3.16 µM
CCc1sc(C(=O)Nc2ccccc2N2CCOCC2)cc1C	inconclusive [activator, single point]
CCN(c1cccc(C)c1)S(=O)(=O)c1nnc(NC(=O)c2ccco2)s1	inconclusive [inhibitor, single point]
CCOC(=O)c1cc2sccc2n1CC(=O)N1c2ccccc2CC1C (stereo not given)	inconclusive [inhibitor, single point]
C/C(=N\NC(=O)c1ccc(Cl)cc1)c1ccccn1	inconclusive [inhibitor, partial curve, poor fit]
COc1cc(/C=C/C(=O)O)cc(S(=O)(=O)Nc2cccc(SC)c2)c1OC	inactive
